Changes are numbered by the printed parent chain. Numbers in names are those of the source.
T1: Activin A (Homo sapiens (Human), UniProt P08476 311-426)
T1 sequence: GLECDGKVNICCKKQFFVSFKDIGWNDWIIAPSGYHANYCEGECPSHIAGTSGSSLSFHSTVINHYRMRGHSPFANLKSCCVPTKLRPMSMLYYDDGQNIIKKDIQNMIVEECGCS

B1: ActRIIB-IgG1Fc (SEQ ID NO: 58) (Fc fusion)
chain: SGRGEAETRECIYYNANWELERTNQSGLERCEGEQDKRLHCYASWRNSSGTIELVKKGCWLDDFNCYDRQECVATEENPQVYFCCCEGNFCNERFTHLPEAGGPEVTYEPPPTAPTGGGGS[letters of human IgG1 Fc with T250I D280G (EU numbers) omitted]
notes: also called ActRIIB-IgG1Fc mature polypeptide; wild type
B2: vActRIIB-IgG1Fc, E28Y (SEQ ID NO: 64) (Fc fusion)
chain: B1 chain with E10Y
notes: also called vActRIIB-IgG1Fc E28Y (E10Y) mature polypeptide
B3: vActRIIB-IgG1Fc, E28A (SEQ ID NO: 60) (Fc fusion)
chain: B1 chain with E10A
notes: also called vActRIIB-IgG1Fc E28A (E10A) mature polypeptide
B4: vActRIIB-IgG1Fc, E28W (SEQ ID NO: 62) (Fc fusion)
chain: B1 chain with E10W, I12L
notes: also called vActRIIB-IgG1Fc E28W (E10W) mature polypeptide
B5: vActRIIB5-IgG1Fc, E28W (SEQ ID NO: 72) (Fc fusion)
chain: SGRGEAETRWCIYYNANWELERTNQSGLERCEGEQDKRLHCYASWRNSSGTIELVKKGCWLDDFNCYDRQECVATEENPQVYFCCCEGNFCNERFTHLPEAGGPEGPWASTTIPSGGPEATAAAGDQGSGALWLCLEGPAHEGGGGS[letters of human IgG1 Fc omitted]
notes: also called vActRIIB5-IgG1Fc E28W (E10W) mature polypeptide
B6: ActRIIB5-IgG1Fc (SEQ ID NO: 68) (Fc fusion)
chain: B5 chain with W10E
notes: also called vActRIIB5-IgG1Fc mature polypeptide; wild type ActRIIB5
B7: vActRIIB5-IgG1Fc, E28A (SEQ ID NO: 70) (Fc fusion)
chain: B5 chain with W10A
notes: also called vActRIIB5-IgG1Fc E28A (E10A) mature polypeptide

Biological target: T1, Activin A
Assay: cell-based or functional assay

IC50 (nM) Activin, C2C12/pMARE-luc luciferase reporter assay, 4 nM activin	Binder
8.2 nM	B1
2.1 nM	B2
25.3 nM	B3
2.07 nM	B4
16.9 nM	B5

Biological target: T1, Activin A
Assay: SPR (Biacore), purified protein, 20 nM activin A, normalized signal
Protocol: Qualitative BIAcore® Assay. E28 and R40 were substituted respectively with other natural amino acids in fusions with IgG1 Fc as described above. Each vActRIIB-IgG1Fc sample from conditioned media was captured on goat anti-human IgG1 Fc antibody (Jackson Immuno Research, cat#109-005-098, lot 63550) coated CMS surface. 20 nM of Activin A was injected over captured sample surfaces using BIACore2000 (BIACore Life Sciences, Piscataway, N.J.). The resulting sensorgrams were normalized to the captured RL (500 RU) of vActRIIB-IgG1Fc variants. The normalized binding response (RU) for some variants are shown in Table 2, and is further described below. Relative binding affinity for activin was also determined by Biacore measurements using conditioned media obtained from mammalian cell expression. Activin A (20 nM) was used to capture soluble receptor polypeptide in the conditioned media and measured SPR signals were normalized. Normalized SPR of +++++: >60, ++++:40-60, +++:20-40, ++:10-20, +: 5-10, −: <5.
Activin A (20 nM) was used to capture vActRIIB polypeptides in the samples and measured SPR signals were normalized. IC50 values were obtained from cell-based activin inhibition assays described above. Standard errors are less than 10% for all results.

SPR normalized RU	Binder
35 RU	B1
115 RU	B2
20 RU	B3
128 RU	B4
37 RU	B6
8 RU	B7
45 RU	B5

— patent US20130288983A1 (Amgen, published 2013)
